Measured values: article PMC4336329 (PLoS ONE, 2015)
Among all 310,000 compounds or so, about 14,000 (4.5%) showed an effect of 50% or more. The effect is printed as a negative number. The list shows a part of the results.

These molecules were tested against human ether-à-go-go-related gene (hERG) potassium channel (human, UniProt Q12809) (assay: primary screen, population patch clamp on CHO cells stably expressing hERG).
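Also: peak tail current of the secondary pulse compared with the same well before compound.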

human ether-à-go-go-related gene (hERG) potassium channel, sequence (Q12809 whole entry, looked up): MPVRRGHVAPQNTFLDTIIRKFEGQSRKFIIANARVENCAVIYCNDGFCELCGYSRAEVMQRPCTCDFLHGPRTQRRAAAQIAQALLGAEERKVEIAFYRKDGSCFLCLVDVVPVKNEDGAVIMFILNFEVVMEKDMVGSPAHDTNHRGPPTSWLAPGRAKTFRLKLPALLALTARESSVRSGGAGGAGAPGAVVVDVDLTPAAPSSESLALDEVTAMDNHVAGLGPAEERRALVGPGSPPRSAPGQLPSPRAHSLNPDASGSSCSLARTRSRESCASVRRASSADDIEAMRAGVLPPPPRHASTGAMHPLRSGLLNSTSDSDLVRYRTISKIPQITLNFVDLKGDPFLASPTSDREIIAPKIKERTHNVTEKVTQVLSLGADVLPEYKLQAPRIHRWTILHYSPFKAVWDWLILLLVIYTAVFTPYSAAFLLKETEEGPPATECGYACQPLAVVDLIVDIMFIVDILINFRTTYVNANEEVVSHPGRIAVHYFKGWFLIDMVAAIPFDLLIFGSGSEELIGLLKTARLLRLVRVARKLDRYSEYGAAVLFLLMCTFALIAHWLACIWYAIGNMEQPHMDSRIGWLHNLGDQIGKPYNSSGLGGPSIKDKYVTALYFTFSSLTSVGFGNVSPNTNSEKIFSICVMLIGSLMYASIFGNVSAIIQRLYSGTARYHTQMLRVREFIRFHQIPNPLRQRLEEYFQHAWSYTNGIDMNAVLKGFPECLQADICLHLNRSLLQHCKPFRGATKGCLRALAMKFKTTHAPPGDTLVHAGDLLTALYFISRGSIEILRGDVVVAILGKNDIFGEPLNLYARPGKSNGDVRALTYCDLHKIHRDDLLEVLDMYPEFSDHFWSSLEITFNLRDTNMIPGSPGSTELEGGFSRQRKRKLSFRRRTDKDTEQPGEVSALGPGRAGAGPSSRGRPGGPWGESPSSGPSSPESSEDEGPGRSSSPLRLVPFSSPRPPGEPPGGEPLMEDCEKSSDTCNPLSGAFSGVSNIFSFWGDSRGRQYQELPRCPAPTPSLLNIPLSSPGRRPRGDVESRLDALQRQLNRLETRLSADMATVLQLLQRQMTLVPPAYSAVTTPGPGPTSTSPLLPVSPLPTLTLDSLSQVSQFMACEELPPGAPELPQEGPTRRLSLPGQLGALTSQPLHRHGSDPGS

Compound	hERG current change (%, negative = inhibition) at 10uM [%]
CSc1ccc(C(=O)C2CCCN(C(=O)CCn3cncn3)C2)cc1 (stereo not shown)	-14.9
O=c1c2cc([N+](=O)[O-])ccc2nc(CN2CCN(c3ccccn3)CC2)n1-c1ccccc1F	-28.3
O=S(=O)(c1cccc(NC(=S)Nc2ccc(Br)cc2Cl)c1)N1CCOCC1	0.48
CC(=O)c1coc2c1cc(O)c1ccccc12	20.9
CCOc1ccc(CCNC(=O)C2CCCN(C(=O)N(C)C)C2)cc1OCC (stereo not shown)	-1.68
COc1ccc(C2/C(=C(/O)c3ccc(OC(C)C)cc3)C(=O)C(=O)N2CCCN2CCOCC2)cc1 (stereo not shown)	3.64
COc1ccccc1CNC(=O)CSc1n[nH]c(N)n1	27.1
CC(OC(=O)CCCC(=O)Nc1ccccc1)C(=O)c1ccccc1 (stereo not shown)	6.63
CCCCN(CC)CCCNC(=O)C1c2ccccc2C(=O)N(C)C1c1cn(C)c2ccccc12 (stereo not shown)	-72.7
CCN(CC)C(=O)CSc1nnc(-c2cc(OC)cc(OC)c2)o1	-3.88
CC(C)(C)n1nnnc1C(c1ccncc1)N(Cc1ccccc1)Cc1ccco1 (stereo not shown)	-25.8
O=Cc1ccc(-c2cccc([N+](=O)[O-])c2)o1	-18.6
CCCCN1CCNC1=S	15.8
COc1ccc(N(C(=O)CNC(=O)c2ccco2)C(C(=O)NC2CCCC2)c2ccncc2)cc1 (stereo not shown)	13.1
Cc1csc(=O)n1CC(=O)OCC(=O)NNC(=O)c1ccc([N+](=O)[O-])cc1	0.832
NC(=O)C1CCN(c2ncccc2[N+](=O)[O-])CC1	5.61
O=C(Nc1cc(Cl)ccc1C(=O)O)c1ccc(CN2C(=O)c3ccccc3C2=O)cc1	20.7
Cc1cc(C)c(OCCOCCN2CCN(C)CC2)c(Cl)c1.O=C(O)C(=O)O	-5.21
CN1N=C(c2ccc(F)c(F)c2)CSC1=NCc1ccccc1	4.52
COC(=O)c1c(-n2cnnn2)sc(C)c1C	6.69
CCC(NC(=O)c1cc(COc2c(F)cccc2F)on1)c1ccncc1 (stereo not shown)	-5.19
O=C(N/C(=C\c1ccc2c(c1)OCO2)C(=O)N1CCOCC1)c1ccccc1Br	2.88
CCCn1c(=O)c(C(=O)NCC2CCCO2)c(O)c2ccccc21 (stereo not shown)	-19
Cc1ccccc1-n1c(C)nc2ccsc2c1=O.Cl	9.62
S=C(NCc1ccccc1)N1CCN(Cc2ccc3c(c2)OCO3)CC1	-16.7
COc1nccnc1NS(=O)(=O)c1ccc(N=Cc2c(C)[nH]n(-c3ccccc3)c2=O)cc1	16.6
CC(=O)Nc1nc(C)c(S(N)(=O)=O)s1	-20.2
Cc1ccc(S(=O)(=O)NCC(=O)N(CC(=O)NCc2ccco2)Cc2ccco2)cc1	-23.5

Compound	hERG current change (%, negative = inhibition) at 10uM [%]
CCCc1cc(=O)n2[nH]c(-c3ccc(Br)cc3)cc2n1	-10.5
COc1ccc(NC(=O)Cn2cc(C#N)c3ccccc32)cc1	15.3
COc1cc(CN2CCCC(C(=O)Nc3cccc(-n4cccn4)c3)C2)ccc1F (stereo not shown)	-49.3
CC1=NOC2(C)Nc3ncnn3C(c3ccccc3)C12 (stereo not shown)	-14.3
COc1ccc(OC)c(S(=O)(=O)N2CCN(C34CC5CC(CC(C5)C3)C4)CC2)c1	-22.9
COc1ccc(C2C(C#N)=C(N)Oc3n[nH]c(C)c32)cc1Cn1cc([N+](=O)[O-])cn1 (stereo not shown)	-14
Cc1cc(NC(=O)Cn2nc(C(=O)O)c3ccccc3c2=O)c([N+](=O)[O-])cc1C	21.7
CCN(CC(=O)NCc1ccc(F)cc1)S(=O)(=O)c1ccc(C)cc1	-43.6
CCn1c(CNS(=O)(=O)c2ccc(Cl)cc2)n[nH]c1=S	22.2
Cc1ccc(N(CC(=O)NCCSCc2ccco2)S(C)(=O)=O)cc1	0.889
CC1(C)CC(=O)C2=C(C1)N(c1cccc(Cl)c1)C(=O)NC2(C(F)(F)F)C(F)(F)F	2.04
COc1cc(CCCN2C(=O)C(=O)NC[C@@H]2CCCCN)cc(OC)c1OC	20.1
Cc1cc(=O)[nH]c(N/N=C/c2cc(C)n(-c3ccccc3)c2C)n1	13.8
Cc1ccc(-c2nnc(NC3CCCCC3)c3ccccc23)cc1S(=O)(=O)N1CCN(C)CC1	-54.6
O=C(NCCCN1CCOCC1)c1ccccc1N1C(=O)[C@@H]2Cc3c([nH]c4ccccc34)C(c3ccc(F)cc3)N2C1=O (stereo partly shown)	-68
O=c1oc(C2(O)CCCCC2)cc2ccc(Br)cc12	20.1
CCn1cc(S(=O)(=O)N2CCN(Cc3cccc(Cl)c3)CC2)cn1	-2.04
O=C(OCc1ccc(-c2ccccc2)cc1)c1cccc(O)c1	12.5
COc1ccc(C2=NOC(Cn3nc(C(=O)O)cc3-c3ccccc3)C2)cc1 (stereo not shown)	-10.3
Cc1ccc(N(CC(=O)NCc2ccco2)C(=O)CNS(=O)(=O)c2ccccc2)c(C)c1	-5.25
CC(C)CC(=O)Nc1nnc(S(=O)(=O)N(C)Cc2ccco2)s1	22.9
O=C(COc1cccnc1[N+](=O)[O-])NCc1cccs1	-10.9
CC(C)NC(=O)c1cc(C(=O)c2cc(Cl)ccc2O)coc1=N	-3.22
CC1CCN(C(=O)C(NS(=O)(=O)c2cccc3nsnc23)C(C)C)CC1 (stereo not shown)	-5.48
O=C(N/C(=C\c1ccccc1)C(=O)N1CCCCC1)c1ccc(Br)o1	15.8
N#CC1=C(N)Oc2cc(O)c(C=Nc3ccccc3)cc2C1c1ccccc1 (stereo not shown)	-4.45
O=[N+]([O-])c1ccc(Sc2n[nH]c(-c3ccncc3)n2)nc1	14.4
